{"source": "PubChem BioAssay AID686978", "about": "(National Center for Advancing Translational Sciences (NCATS), 2013)", "note": "Where “and” joins values, the source holds several entries; their conditions need not be identical. Equal values may be shown once. Among all 420,000 compounds or so, about 64,000 (15%) were called active. Inconclusive results, whose numbers are uncertain, are shown with a selection of clear calls. Calls come from the whole dose curve; as a rule, active = well fitted inhibition curve with a large enough effect; inconclusive = small, poorly fitted or top-dose-only effect; inactive = flat fitted curve, though single readings scatter. Potencies beside an inconclusive call are fits to weak or partial responses and may not hold up. % is set by controls: 0 for no effect and ±100 for the full control effect; potency is the fitted concentration of half-maximal effect; tags give direction and shape of the fitted curve.", "data": [{"test": "qHTS for Inhibitors of human tyrosyl-DNA phosphodiesterase 1 (TDP1): qHTS in cells in absence of CPT; note: nearly all actives have a fitted effect of over 55% in size", "conditions": "DT40 Tdp1-/- hTDP1 cells, no CPT, ATP luminescence, 48 h; activity change, negative = growth inhibition: at 46.2 µM (top of the series) unless noted", "summary_of_the_method": "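Stably hTDP1-transfected Tdp1-null chicken DT40 cells were treated with library compounds minus camptothecin and grown for at least 48 hr at 37 °C, after which cellular ATP was quantified by luminescence.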", "values": [{"smiles": "COc1ccccc1N(C(=O)c1snc(C(N)=O)c1N)C(C(=O)NCc1ccccc1)c1ccc(C)o1", "note": "(centres undefined)", "Potency": "inconclusive: 13 µM [inhibitor, partial curve, poor fit]"}, {"smiles": "CCN(CC)C(=S)NC(=O)c1cc(OC)c(OC)c(OC)c1", "activity change, negative = growth inhibition": "inactive: -2.95%"}, {"smiles": "O=C(Nc1ccccc1)c1ccc[n+](Cc2ccc([N+](=O)[O-])cc2)c1", "activity change, negative = growth inhibition": "inactive: 1.62%"}, {"smiles": "CCc1noc(C)c1C(=O)N(C)CC(=O)Nc1ccc(Cl)c(Cl)c1", "Potency": "inconclusive: 14.6 µM [inhibitor, partial curve]"}, {"smiles": "C/C(CC1CC(C)(C)OC1=O)=N\\NC(N)=S", "note": "(centres undefined)", "activity change, negative = growth inhibition": "inactive: -7.71%"}, {"smiles": "Cc1ccc2cc(CN(CCO)Cc3nnnn3Cc3ccc(F)cc3)c(=O)[nH]c2c1", "Potency": "inconclusive: 6.51 µM [inhibitor, partial curve]"}, {"smiles": "O=c1[nH]c(CN2CCCCC2)nc2c1C1(CCCCC1)Cc1ccccc1-2", "Potency": "active: 13 µM"}, {"smiles": "C[C@H]1C[C@H]2[C@@H]3CCC4=CC(=O)C=C[C@]4(C)[C@@]3(Cl)[C@@H](O)C[C@]2(C)[C@@]1(O)C(=O)CO", "Potency": "inconclusive: 21.1 µM [inhibitor, partial curve, poor fit]"}, {"smiles": "Cc1ccc(C(=O)O)cc1NC(=O)c1ccc2c(c1)C(=O)N(c1ccc([N+](=O)[O-])cc1)C2=O", "activity change, negative = growth inhibition": "inactive: 2.54%"}, {"smiles": "COc1ccccc1NS(=O)(=O)c1cc(NC(=O)CNC(=O)c2ccc(C)s2)ccc1Cl", "activity change, negative = growth inhibition": "inactive: -74.7%"}, {"smiles": "COc1ccc(NC(=O)c2cc3ccccn3n2)cc1", "activity change, negative = growth inhibition": "inactive: -6.22%"}, {"smiles": "CCn1c(CN2CCN(Cc3ccc(C)cc3)C(CCO)C2)nc2ccccc21", "note": "(centres undefined)", "Potency": "inconclusive: 25.9 µM [inhibitor, single point]"}, {"smiles": "CCOC(=O)Cc1ccc(NC(=O)c2cccc([N+](=O)[O-])c2)cc1", "Potency": "inconclusive: 8.2 µM [inhibitor, partial curve]"}, {"smiles": "CCOc1ccc(N(C)C(=O)C2CCN(S(=O)(=O)c3ccc4c(c3)CCCN4C(C)=O)CC2)cc1", "Potency": "inconclusive: 23.1 µM [inhibitor, single point]"}, {"smiles": "O=C(C[C@H]1CC[C@@H](NC(=O)C2CC2)[C@@H](CO)O1)NCc1ccccc1Cl", "activity change, negative = growth inhibition": "inactive: -6.84%"}, {"smiles": "NC1=NC(=O)/C(=C/c2ccccc2OS(=O)(=O)c2ccccc2)S1", "activity change, negative = growth inhibition": "inactive: -3.13%"}, {"smiles": "CCOC(=O)c1c(C)[nH]c(C)c1C(=O)CSc1nc2ccccc2n1CCOC", "Potency": "inconclusive: 20.6 µM [inhibitor, single point]"}, {"smiles": "CCOc1ccc(S(=O)(=O)N2CCCC(C(=O)NCc3cccnc3)C2)cc1Cl", "note": "(centres undefined)", "Potency": "inconclusive: 16.4 µM [inhibitor, partial curve]"}, {"smiles": "CC(C)(CNS(=O)(=O)c1ccc(F)cc1)CNS(=O)(=O)c1ccc(F)cc1", "activity change, negative = growth inhibition": "inactive: -20.3%"}, {"smiles": "Cc1ccc(C(=O)NNC(=O)COC(=O)COc2ccccc2C#N)cc1", "activity change, negative = growth inhibition": "inactive: -8.59%"}, {"smiles": "CCOC(=O)C1CCN(S(=O)(=O)C(F)(F)c2nc3ccccc3s2)CC1", "Potency": "inconclusive: 25.9 µM [inhibitor, partial curve]"}, {"smiles": "CCC(CC)C(=O)N(C)c1c(C)nc2c(OCc3ccc(Cl)cc3)cccn12", "Potency": "inconclusive: 23.1 µM [inhibitor, single point]"}, {"smiles": "COc1ccc(SC[C@H](C)CN2CC[C@H](C)CCC2=O)cc1", "Potency": "inconclusive: 11.2 µM [inhibitor, partial curve] and inconclusive: 18.4 µM [inhibitor, single point]"}, {"smiles": "O=C(NCc1ccccn1)c1nc(-c2cccs2)no1", "activity change, negative = growth inhibition": "inactive: 8.99%"}, {"smiles": "Cc1ccc(Cl)c(OC(=O)C2CSC3(C)CCC(=O)N23)c1", "note": "(centres undefined)", "activity change, negative = growth inhibition": "inactive: 7.95%"}, {"smiles": "COc1cccc(-n2c(=O)c3sc4ccccc4c3n(CC(=O)Nc3ccccc3OC)c2=O)c1", "Potency": "active: 14.6 µM"}, {"smiles": "Cc1ccc(Cl)cc1N1CCN(C(=O)Cn2ncc3c([nH]c4ccccc43)c2=O)CC1", "activity change, negative = growth inhibition": "inconclusive: -32.2% [inhibitor]"}, {"smiles": "O=S(=O)(c1ccccc1)c1nnn2c1nc(Nc1ccccc1)c1cc(Cl)ccc12", "Potency": "inconclusive: 25.9 µM [inhibitor, single point]"}, {"smiles": "O=C(CCc1ccccc1)N1CCCN(C(=O)CCc2ccccc2)CC1", "Potency": "inconclusive: 20.6 µM [inhibitor, single point]"}, {"smiles": "O=C(OCC(=O)N1CCN(C(=O)c2ccco2)CC1)c1cn(-c2ccccc2)nc1-c1ccccc1", "Potency": "inconclusive: 29.1 µM [inhibitor, single point]"}, {"smiles": "OC[C@@H]1CN(Cc2ccc(-c3ccccc3)cc2)C[C@H](n2cnc3c(Nc4ccccc4)ncnc32)O1", "Potency": "inconclusive: 11.6 µM [inhibitor, partial curve, poor fit]"}, {"smiles": "FC(F)(F)c1ccc(C2[C@H]3CN(Cc4ccc(-c5ccccc5)cc4)[C@H](c4ccccc4)C34CC2(c2ccccc2)C4)cc1", "note": "(some centres undefined)", "Potency": "inconclusive: 29.1 µM [inhibitor, single point]"}, {"smiles": "CC(C)(C)OC(=O)N1CCC(C(=O)Nc2ccc(C(=O)NC3CC3)cc2)CC1", "activity change, negative = growth inhibition": "inactive: 0.972%"}, {"smiles": "COc1ccc2nc(NC(=O)c3ccoc3C)sc2c1", "Potency": "inconclusive: 16.4 µM [inhibitor, partial curve, poor fit]"}, {"smiles": "CNC(=S)N1CCN(S(=O)(=O)c2ccc3ccccc3c2)CC1", "activity change, negative = growth inhibition": "inactive: -16.8%"}, {"smiles": "COc1ccc(C2=NN(c3nc(-c4ccc(CNC(C)=O)cc4)cs3)C(c3ccco3)C2)cc1", "note": "(centres undefined)", "Potency": "active: 18.4 µM"}, {"smiles": "O=C(CCCN1C(=O)/C(=C/c2ccccc2Cl)SC1=S)NCCCN1CCOCC1", "Potency": "inconclusive: 23.1 µM [inhibitor, single point]"}, {"smiles": "Cc1cc(C)cc(NC(=O)C(NS(=O)(=O)c2cccc3nsnc23)c2ccccc2)c1", "note": "(centres undefined)", "Potency": "inconclusive: 29.1 µM [inhibitor, single point]"}, {"smiles": "COCc1cccc(NC(=O)Cc2cccc3ccccc23)c1", "Potency": "inconclusive: 32.6 µM [inhibitor, partial curve, poor fit]"}, {"smiles": "O=C(CSc1nnc(-c2ccc(F)cc2)c2ccccc12)Nc1ccccc1", "Potency": "inconclusive: 25.9 µM [inhibitor, single point]"}, {"smiles": "Cc1ccc(-n2nnnc2SCC(=O)Nc2ncc(Cc3ccccc3Cl)s2)cc1", "activity change, negative = growth inhibition": "inactive: -23.9%"}, {"smiles": "CN(C(=O)CSc1nc(N)c2c3c(sc2n1)CSC(C)(C)C3)c1ccccc1", "Potency": "active: 16.4 µM"}, {"smiles": "Cc1ccc(C)c(N2CCN(CCCNC(=O)Cn3cccc3C(=O)c3ccccc3C)CC2)c1", "Potency": "active: 2.59 µM"}, {"smiles": "N#Cc1nc(COc2cccc(Cl)c2)oc1N1CCN(c2ccccc2)CC1", "Potency": "inconclusive: 20.6 µM [inhibitor, partial curve]"}, {"smiles": "CCCCOc1nnc(-c2ccc(OCC)cc2)c2ccccc12", "Potency": "inconclusive: 25.9 µM [inhibitor, single point]"}, {"smiles": "CC(NC(=O)COC(=O)CNC(=O)C1CCCCC1)c1ccccc1", "note": "(centres undefined)", "activity change, negative = growth inhibition": "inactive: 3.6%"}, {"smiles": "Cc1cccc(C)c1NC(=S)Nc1ccc(Cl)c(Cl)c1", "Potency": "inconclusive: 29.1 µM [inhibitor, single point]"}, {"smiles": "COc1cccc(-c2ccc3ncnc(Nc4ccccc4)c3c2)c1", "Potency": "inconclusive: 29.1 µM [inhibitor, single point]"}, {"smiles": "Cc1ccc2oc(C(F)(F)C(F)F)cc(=O)c2c1", "activity change, negative = growth inhibition": "inactive: -15.2%"}, {"smiles": "CCCCCN=CC1=C(O)CC(c2ccccc2)CC1=O", "note": "(centres undefined)", "activity change, negative = growth inhibition": "inactive: -4.63%"}, {"smiles": "Cc1ccccc1-c1n[nH]nc1C1=CC(=O)CC(C)(C)C1", "activity change, negative = growth inhibition": "inactive: -20.8%"}, {"smiles": "O=C(COC(=O)CC1CC2CCC1C2)Nc1ccc(Cl)c(S(=O)(=O)N2CCOCC2)c1", "note": "(centres undefined)", "Potency": "inconclusive: 20.6 µM [inhibitor, single point]"}, {"smiles": "CCN(CC(=O)Nc1ccc2c(c1)OCCO2)C(=O)/C=C/c1ccc(OC)cc1OC", "activity change, negative = growth inhibition": "inconclusive: -32.6% [inhibitor]"}, {"smiles": "O=C(O)CCCC(=O)Nc1nc(-c2ccccc2)cs1", "activity change, negative = growth inhibition": "inactive: -7.6%"}, {"smiles": "CCOc1ccc(S(=O)(=O)NCc2cccs2)cc1C(C)C", "Potency": "inconclusive: 29.1 µM [inhibitor, single point]"}, {"smiles": "C#CCOCCOCCOCCNc1nc(N2CCN(C(=O)CCCCCCCCCCNC(=O)Cn3cc(CCCCCN)nn3)CC2)nc(N2CCN(C(=O)CCCCCCCCCCNC(=O)[C@H]([C@@H](C)CC)n3cc(CCCCN=C(N)N)nn3)CC2)n1", "Potency": "inconclusive: 23.1 µM [inhibitor, single point]"}, {"smiles": "Cc1ccc(-c2nn(-c3ccccc3)cc2/C=C2\\SC(=S)N(CC(=O)O)C2=O)cc1", "Potency": "inconclusive: 20.6 µM [inhibitor, single point]"}, {"smiles": "CCOc1ccc(NC(=O)CSc2nnc(COc3c(C)cccc3C)o2)cc1", "activity change, negative = growth inhibition": "inactive: -18.3%"}, {"smiles": "CNC(=O)c1csc(-c2ccccc2)n1", "activity change, negative = growth inhibition": "inactive: 10.5%"}, {"smiles": "CCN(CC)S(=O)(=O)c1cccc(C(=O)NC(C(=O)Nc2nnc(C3CC3)s2)C(C)C)c1", "note": "(centres undefined)", "Potency": "inconclusive: 29.1 µM [inhibitor, single point]"}, {"smiles": "NS(=O)(=O)c1ccc(CCNc2ccccc2[N+](=O)[O-])cc1", "activity change, negative = growth inhibition": "inactive: -29.6%"}, {"smiles": "O=C(N/N=C\\c1ccc(CNS(=O)(=O)c2ccc(Cl)cc2)o1)C(=O)Nc1ccc(Oc2ccccc2)cc1", "Potency": "active: 6.51 µM"}, {"smiles": "O=C(COc1ccccc1[N+](=O)[O-])Nc1ccccc1N1CCCC1", "Potency": "inconclusive: 10.3 µM [inhibitor, partial curve, poor fit]"}, {"smiles": "COc1ccc(C(CC(=O)Nc2cc([N+](=O)[O-])ccc2OC)c2ccccc2)cc1", "note": "(centres undefined)", "Potency": "inconclusive: 23.1 µM [inhibitor, single point]"}, {"smiles": "Cc1ccc(NC(=S)NC(=O)C2CCCCC2)c(Br)c1", "Potency": "active: 14.6 µM"}, {"smiles": "CO/N=C(\\C(=O)O)c1csc(NN=C(C)C)n1", "activity change, negative = growth inhibition": "inactive: -28%"}, {"smiles": "CCN(CC)CCN(C(=O)Cn1nnc(-c2ccc(C)o2)n1)C(C(=O)NC1CCCC1)c1ccc(F)cc1", "note": "(centres undefined)", "Potency": "inconclusive: 32.6 µM [inhibitor, single point]"}, {"smiles": "Nn1c(SCC(=O)Nc2cccc(Br)c2)nnc1C1CC1", "activity change, negative = growth inhibition": "inactive: -18.6%"}, {"smiles": "CC(C)OP(=O)(c1ccc(N(C)C)cc1)C(O)c1c(Cl)cccc1Cl", "note": "(centres undefined)", "activity change, negative = growth inhibition": "inactive: -17.5%"}]}]}
